Experimental data reported in the supplement of paper PMC8728848.
Some of the results follow.

Assays:
Experiment in all cases: glycan array binding signal (z-score within array); higher = stronger binding
Conditions in all cases: glycan notation: IUPAC condensed, linker removed; mutation: E227A
[1] = target: Neu5Ac(a2-3)Gal(b1-3)GlcNAc(b1-6)GalNAc
Method in brief: (§1)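 Glycan array data came from 3228 arrays in the Consortium for Functional Glycomics database, and only arrays with an available protein sequence were kept. Glycan names were put into IUPAC-condensed notation, and columns mapping to the same glycan were averaged. The binding signal is a within-array Z-score, averaged across arrays of one protein sequence run at different concentrations or buffers and across linkers. A negative Z-score can be read as non-binding.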

[2] = target: Neu5Ac(a2-3)Gal(b1-3)GlcNAc6S
Method in brief: as §1

[3] = target: Neu5Ac(a2-3)Gal(b1-3)[Fuc(a1-4)]GlcNAc
Method in brief: as §1

[4] = target: Neu5Ac(a2-3)Gal(b1-3)[Fuc(a1-4)]GlcNAc(b1-3)Gal(b1-3)[Fuc(a1-4)]GlcNAc
Method in brief: as §1

[5] = target: Neu5Ac(a2-3)Gal(b1-3)[Fuc(a1-4)]GlcNAc(b1-3)Gal(b1-4)[Fuc(a1-3)]GlcNAc
Method in brief: as §1

[6] = target: Neu5Ac(a2-3)Gal(b1-3)[GlcNAc(b1-6)]GalNAc
Method in brief: as §1

[7] = target: Neu5Ac(a2-3)Gal(b1-3)[Neu5Ac(a2-6)]GalNAc
Method in brief: as §1

[8] = target: Neu5Ac(a2-3)Gal(b1-3)[Neu5Ac(a2-6)]GlcNAc(b1-3)[Fuc(a1-3)[Gal(b1-4)]GlcNAc(b1-6)]Gal(b1-4)Glc
Method in brief: as §1

[9] = target: Neu5Ac(a2-3)Gal(b1-3)]Neu5Ac(a2-3)Gal(b1-4)]GlcNAc
Method in brief: as §1

Neu5Ac(a2-3)Gal(b1-4)Glc = target: Neu5Ac(a2-3)Gal(b1-4)Glc
Method in brief: as §1

[10] = target: Neu5Ac(a2-3)Gal(b1-4)GlcNAc
Method in brief: as §1

[11] = target: Neu5Ac(a2-3)Gal(b1-4)GlcNAc(b1-2)Man
Method in brief: as §1

[12] = target: Neu5Ac(a2-3)Gal(b1-4)GlcNAc(b1-2)Man(a1-3)[GlcNAc(b1-4)][Neu5Ac(a2-3)Gal(b1-4)GlcNAc(b1-2)Man(a1-6)]Man(b1-4)GlcNAc(b1-4)GlcNAc
Method in brief: as §1

[13] = target: Neu5Ac(a2-3)Gal(b1-4)GlcNAc(b1-2)Man(a1-3)[Neu5Ac(a2-3)Gal(b1-4)GlcNAc(b1-2)Man(a1-6)]Man(b1-4)GlcNAc(b1-4)GlcNAc
Method in brief: as §1

[14] = target: Neu5Ac(a2-3)Gal(b1-4)GlcNAc(b1-2)Man(a1-3)[Neu5Ac(a2-3)Gal(b1-4)GlcNAc(b1-2)Man(a1-6)]Man(b1-4)GlcNAc(b1-4)[Fuc(a1-6)]GlcNAc
Method in brief: as §1

[15] = target: Neu5Ac(a2-3)Gal(b1-4)GlcNAc(b1-2)Man(a1-3)[Neu5Ac(a2-6)Gal(b1-4)GlcNAc(b1-2)Man(a1-6)]Man(b1-4)GlcNAc(b1-4)GlcNAc
Method in brief: as §1

[16] = target: Neu5Ac(a2-3)Gal(b1-4)GlcNAc(b1-2)[Neu5Ac(a2-3)Gal(b1-4)GlcNAc(b1-4)]Man(a1-3)[GlcNAc(b1-4)][Neu5Ac(a2-3)Gal(b1-4)GlcNAc(b1-2)[Neu5Ac(a2-3)Gal(b1-4)GlcNAc(b1-6)]Man(a1-6)]Man(b1-4)GlcNAc(b1-4)GlcNAc
Method in brief: as §1

[17] = target: Neu5Ac(a2-3)Gal(b1-4)GlcNAc(b1-2)[Neu5Ac(a2-3)Gal(b1-4)GlcNAc(b1-4)]Man(a1-3)[GlcNAc(b1-4)][Neu5Ac(a2-3)Gal(b1-4)GlcNAc(b1-4)Man(a1-6)]Man(b1-4)GlcNAc(b1-4)GlcNAc
Method in brief: as §1

[18] = target: Neu5Ac(a2-3)Gal(b1-4)GlcNAc(b1-2)[Neu5Ac(a2-3)Gal(b1-4)GlcNAc(b1-6)]Man(a1-6)[Neu5Ac(a2-3)Gal(b1-4)GlcNAc(b1-2)Man(a1-3)][GlcNAc(b1-4)]Man(b1-4)GlcNAc(b1-4)GlcNAc
Method in brief: as §1

[19] = target: Neu5Ac(a2-3)Gal(b1-4)GlcNAc(b1-3)Gal
Method in brief: as §1

[20] = target: Neu5Ac(a2-3)Gal(b1-4)GlcNAc(b1-3)Gal(b1-3)GlcNAc
Method in brief: as §1

[21] = target: Neu5Ac(a2-3)Gal(b1-4)GlcNAc(b1-3)Gal(b1-4)GlcNAc
Method in brief: as §1

[22] = target: Neu5Ac(a2-3)Gal(b1-4)GlcNAc(b1-3)Gal(b1-4)GlcNAc(b1-2)Man(a1-3)[Neu5Ac(a2-3)Gal(b1-4)GlcNAc(b1-3)Gal(b1-4)GlcNAc(b1-2)Man(a1-6)]Man(b1-4)GlcNAc(b1-4)GlcNAc
Method in brief: as §1

[23] = target: Neu5Ac(a2-3)Gal(b1-4)GlcNAc(b1-3)Gal(b1-4)GlcNAc(b1-3)Gal(b1-4)GlcNAc
Method in brief: as §1

[24] = target: Neu5Ac(a2-3)Gal(b1-4)GlcNAc(b1-3)Gal(b1-4)GlcNAc(b1-3)Gal(b1-4)GlcNAc(b1-2)Man(a1-3)[Neu5Ac(a2-3)Gal(b1-4)GlcNAc(b1-3)Gal(b1-4)GlcNAc(b1-3)Gal(b1-4)GlcNAc(b1-2)Man(a1-6)]GalNAc
Method in brief: as §1

[25] = target: Neu5Ac(a2-3)Gal(b1-4)GlcNAc(b1-3)Gal(b1-4)GlcNAc(b1-3)GalNAc
Method in brief: as §1

[26] = target: Neu5Ac(a2-3)Gal(b1-4)GlcNAc(b1-3)Gal(b1-4)GlcNAc(b1-3)[Neu5Ac(a2-3)Gal(b1-4)GlcNAc(b1-3)Gal(b1-4)GlcNAc(b1-6)]GalNAc
Method in brief: as §1

[27] = target: Neu5Ac(a2-3)Gal(b1-4)GlcNAc(b1-3)Gal(b1-4)GlcNAc(b1-6)[Gal(b1-3)]GalNAc
Method in brief: as §1

[28] = target: Neu5Ac(a2-3)Gal(b1-4)GlcNAc(b1-3)Gal(b1-4)[Fuc(a1-3)]GlcNAc
Method in brief: as §1

[29] = target: Neu5Ac(a2-3)Gal(b1-4)GlcNAc(b1-3)GalNAc
Method in brief: as §1

B1: Epa1-NP-mutant-E227A (Candida glabrata), Q6VBJ0 (protein)
chain: MILNPALFLNKCVCIYTTLILLLLTNGGYATSSNDISLASKDPTTFPLGCSPDITTPKKGLSMELYSYDFRKKGSYPCWDAAYLDPNYPRTGYKSHRLLAKVDGVTGNINFYYHATKGCTPQLGHLPASYNYPKPLTMTNFTMLLYGYFRPKVTGFHTFTISADDLLFVNFGAGNAFDCCRRDSSADHFGNYQAYAIWGSKTAKDELTVHLDAGVYYPIRLFYNNRAYDGALSFTFKTESNENTVSDFSEYFFSLDDTEEGCPGLISYDSSCASVKTSKIIGIDYHTETPNENLVPITKTIYHLGIPCTGTTTTPLCGSGFYDPLANKCVTINTSSTSSVTKTTSHTTSKEVSFHSSISSQKTLIPKSIPSPYGPIKSQSIPTEMETSSEISSSEYAFSDVISTPSHSPYTKKHSSLNSSSYTSTVIHSLTSYSISQGIFSTSLSEQNITSKSSTDKFSTATSMSNNITQSSIIISQFSTNNENYTTTSMHTSSDKISTETLNNSISTTTSILFSNSSTILKNNTTIISSDKDTHYHPVNPTIVCSTNKTEIICASITQPSISNSNNHWSSSVLKFNSTTVRSTLPSSAGSNETSINVPFSSSTESNTSTSSTSTSNSKMVRSTLPSSAGSNETSISVPFSSSTESNTSTSSTSTSNSKMVRSTLPSSAGSNETSINVPFSSSTESNTSTSSTSTSNSKTVRSTPFSSAGIIMTSLSQRNNKSASSYASSNSKCYNTADSCRKVHSTPSYLLTSSYTSEGVDYDCSLVSTKLKINDTNCVNNKHTTKSCLKTSVTTTIPTLEIKTARKSSSNTIGLHSYPTSSPNKSISSAPIIGYISSFKTIKTASPSYQTSDLTTITTITSLNNPGSTAVENTHESNDKSRKTSSNDISSKHSVIKETKDAVESSNKSHQTNTLKCSSIIIASSSHNSYESLGGTTLTLTLSKVYSPQNNDTLPFLEISEVNPSRTVLPESSKMMQYLTSTEERNKTARNTIATNIVSISTFHFEGEGNAIRMGYTQLLLMLIGIIVMNIGT
Question: Which “glycan array binding signal (z-score)” value [1] does the source give for B1 here?
Answer: Its value is -0.135.

Question: And the “glycan array binding signal (z-score)” value [2]?
Answer: The value was -0.197.

Question: What about the “glycan array binding signal (z-score)” value [3] of the same binder?
Answer: The value was -0.197.

Question: And the “glycan array binding signal (z-score)” value [4]?
Answer: Its value is -0.156.

Question: What about the “glycan array binding signal (z-score)” value [5] of the same binder?
Answer: The value was -0.177.

Question: And the “glycan array binding signal (z-score)” value [6]?
Answer: The value was -0.2.

Question: What about the “glycan array binding signal (z-score)” value [7] of the same binder?
Answer: Its value is -0.203.

Question: And the “glycan array binding signal (z-score)” value [8]?
Answer: Its value is -0.17.

Question: And the “glycan array binding signal (z-score)” value [9]?
Answer: The value was -0.213.

Question: And the “glycan array binding signal (z-score)” value (Neu5Ac(a2-3)Gal(b1-4)Glc)?
Answer: Its value is -0.202.

Question: What about the “glycan array binding signal (z-score)” value [10] of the same binder?
Answer: The value was -0.192.

Question: What about the “glycan array binding signal (z-score)” value [11] of the same binder?
Answer: The value was -0.153.

Question: And the “glycan array binding signal (z-score)” value [12]?
Answer: The value was -0.161.

Question: What about the “glycan array binding signal (z-score)” value [13] of the same binder?
Answer: Its value is -0.217.

Question: What about the “glycan array binding signal (z-score)” value [14] of the same binder?
Answer: Its value is -0.187.

Question: And the “glycan array binding signal (z-score)” value [15]?
Answer: Its value is -0.195.

Question: What about the “glycan array binding signal (z-score)” value [16] of the same binder?
Answer: Its value is -0.194.

Question: What about the “glycan array binding signal (z-score)” value [17] of the same binder?
Answer: The value was -0.2.

Question: What about the “glycan array binding signal (z-score)” value [18] of the same binder?
Answer: Its value is -0.171.

Question: What about the “glycan array binding signal (z-score)” value [19] of the same binder?
Answer: Its value is -0.202.

Question: And the “glycan array binding signal (z-score)” value [20]?
Answer: The value was -0.198.

Question: And the “glycan array binding signal (z-score)” value [21]?
Answer: The value was -0.214.

Question: And the “glycan array binding signal (z-score)” value [22]?
Answer: The value was -0.188.

Question: And the “glycan array binding signal (z-score)” value [23]?
Answer: Its value is -0.202.

Question: And the “glycan array binding signal (z-score)” value [24]?
Answer: Its value is -0.144.

Question: And the “glycan array binding signal (z-score)” value [25]?
Answer: Its value is -0.19.

Question: And the “glycan array binding signal (z-score)” value [26]?
Answer: Its value is -0.195.

Question: What about the “glycan array binding signal (z-score)” value [27] of the same binder?
Answer: The value was 0.341.

Question: And the “glycan array binding signal (z-score)” value [28]?
Answer: The value was -0.977.

Question: What about the “glycan array binding signal (z-score)” value [29] of the same binder?
Answer: The value was -0.184.
